Reference: PMC4336329 (PLoS ONE, 2015)
About 2,200 (0.71%) of roughly 310,000 compounds showed an effect of 50% or more. The effect is printed as a negative number. This is one part of the list.

Each compound was assayed against human ether-à-go-go-related gene (hERG) potassium channel (human, UniProt Q12809) (assay: primary screen, population patch clamp on CHO cells stably expressing hERG).
Sequence of human ether-à-go-go-related gene (hERG) potassium channel (Q12809 whole entry, looked up): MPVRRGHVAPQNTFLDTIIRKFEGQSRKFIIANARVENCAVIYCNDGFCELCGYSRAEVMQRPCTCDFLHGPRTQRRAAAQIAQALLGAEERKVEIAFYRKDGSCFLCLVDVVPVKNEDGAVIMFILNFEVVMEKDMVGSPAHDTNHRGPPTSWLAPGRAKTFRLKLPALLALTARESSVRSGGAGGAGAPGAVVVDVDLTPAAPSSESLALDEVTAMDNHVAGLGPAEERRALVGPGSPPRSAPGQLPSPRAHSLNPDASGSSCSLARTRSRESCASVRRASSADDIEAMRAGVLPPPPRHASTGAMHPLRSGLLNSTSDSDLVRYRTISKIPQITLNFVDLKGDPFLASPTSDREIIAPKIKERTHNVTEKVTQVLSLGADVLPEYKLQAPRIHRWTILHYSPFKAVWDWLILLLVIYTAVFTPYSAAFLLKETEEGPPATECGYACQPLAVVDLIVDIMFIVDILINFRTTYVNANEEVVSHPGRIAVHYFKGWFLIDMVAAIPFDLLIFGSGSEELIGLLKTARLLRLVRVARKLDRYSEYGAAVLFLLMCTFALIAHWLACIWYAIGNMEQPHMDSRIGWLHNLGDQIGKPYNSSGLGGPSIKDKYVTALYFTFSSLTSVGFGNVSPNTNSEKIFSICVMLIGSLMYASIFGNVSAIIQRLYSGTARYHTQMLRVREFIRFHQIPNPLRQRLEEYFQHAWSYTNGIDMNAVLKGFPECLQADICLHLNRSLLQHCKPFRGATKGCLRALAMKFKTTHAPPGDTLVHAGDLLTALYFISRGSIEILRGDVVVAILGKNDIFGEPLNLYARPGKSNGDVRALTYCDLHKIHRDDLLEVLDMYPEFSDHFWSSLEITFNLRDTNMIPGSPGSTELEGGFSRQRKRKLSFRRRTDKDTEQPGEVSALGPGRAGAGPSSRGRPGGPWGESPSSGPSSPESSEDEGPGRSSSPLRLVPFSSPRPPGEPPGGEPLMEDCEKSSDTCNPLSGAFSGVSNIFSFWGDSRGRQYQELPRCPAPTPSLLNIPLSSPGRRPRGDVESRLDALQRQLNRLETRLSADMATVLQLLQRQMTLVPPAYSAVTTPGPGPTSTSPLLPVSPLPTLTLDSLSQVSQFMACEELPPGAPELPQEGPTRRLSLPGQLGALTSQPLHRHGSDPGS

Row | Compound | hERG current change (%, negative = inhibition) at 1uM
1 | CC1(C)Cc2nc3sc4c(=O)n(CC(=O)NCc5ccco5)cnc4c3cc2CO1 | 6.61%
2 | Cc1ccc(CC(=O)c2ccc(Cl)cc2)cc1 | 8.47%
3 | CCn1nc([N+](=O)[O-])c(C(C#N)c2nc3ccccc3n2C)c(Cl)c1=O (stereo not shown) | 11%
4 | Cc1cccc(NC(=O)CSCc2nc3c(nnn3Cc3ccc(F)cc3)c(=O)[nH]2)c1C | 8.63%
5 | COc1ccc(Oc2nccc(-c3ccc(Cl)cc3)n2)cc1 | 10.8%
6 | CCOC(=O)C(NC(C)=O)(Nc1ccc(S(=O)(=O)Nc2ccncn2)cc1)C(F)(F)F (stereo not shown) | 11.4%
7 | Cn1c(=O)oc2cc(S(=O)(=O)N3CCC(C(=O)NCc4ccccc4)CC3)ccc21 | 4.58%
8 | Cc1cc2ccccc2n1CCNC(=O)c1ccc(Br)o1 | 4.5%
9 | Cc1ccc(N(C(=O)CNC(=O)c2ccco2)C(C(=O)NC2CCCC2)c2cccnc2)cc1C (stereo not shown) | 8.33%
10 | CC(NC(=O)Cn1ccsc1=N)C12CC3CC(CC(C3)C1)C2.Cl (stereo not shown) | 3.15%
11 | CCOc1ccccc1CN1C2CCC1CC(c1ccc(C)cc1)C2 (stereo not shown) | -28.6%
12 | CC1CCC2(CC1)NC(=O)N(CC(=O)Nc1ccc3c(c1)OCCO3)C2=O (stereo not shown) | 17%
13 | CCc1cccc(CC)c1NC(=O)c1ccccc1 | 12.7%
14 | Cc1cccc(C)c1NC(=O)N1CC=C(n2c(=O)[nH]c3ccccc32)CC1 | 1.88%
15 | O=C(NCCc1cn2ccccc2n1)c1cc(COc2ccc3ncccc3c2)on1 | 7.59%
16 | S=c1[nH]ccn1-c1c(Cl)cccc1Cl | 13.5%
17 | Cc1ccc(C)c(NC(=O)CN(C)C(=O)c2ccc(Cl)nc2)c1 | 3.4%
18 | O=C(CSC1=NNC(c2ccccn2)S1)Nc1cccc(Cl)c1 (stereo not shown) | 15%
19 | COc1cccc(NC(=O)CN(C)C(=O)c2ccccc2OCc2c(C)noc2C)c1 | 8.16%
20 | CC(C)(C)c1ccc(OCCCCCCN2CCNCC2)cc1 | 12.1%
21 | O=S(=O)(c1ccc(Oc2ccc(Br)cc2F)nc1)N1CCCCC1 | -1.45%
22 | CCOc1ccc(Br)cc1S(=O)(=O)N1CCC(C(=O)O)CC1 | 6.21%

Row | Compound | hERG current change (%, negative = inhibition) at 1uM
23 | Cc1cc(=O)oc2c(CN(CC(C)C)CC(C)C)c(O)ccc12 | 9.07%
24 | CCOCCn1c(N2CCCC2)nc2c1c(=O)n(C)c(=O)n2C | 6.71%
25 | C=CCN=C1NN=C(c2cc(C)n(CC=C)c2C)CS1 | 10.8%
26 | O=C(NNC(=S)Nc1ccc(F)c(Cl)c1)C1CC1 | 14.1%
27 | c1ccc2c(CSc3ncnc4nc[nH]c34)cccc2c1 | 13.6%
28 | Cc1nc(N)sc1N=Nc1ccc(Br)cc1 | 16.2%
29 | COc1ccc(-c2nnc(SCc3ccccc3)n2N)cc1 | 0.891%
30 | CC(C)OC(=O)c1ccc(COC(=O)c2cnccn2)cc1 | 7.89%
31 | O=[N+]([O-])c1ccc(/C=N/N2CCN(c3ccncc3S(=O)(=O)N3CCCCC3)CC2)cc1 | 1.96%
32 | CC1SC(c2ccc(F)cc2)NC1=O (stereo not shown) | 15.1%
33 | Cc1c(N=Cc2ccc(Br)s2)cccc1[N+](=O)[O-] | -6.3%
34 | O=C(Nc1cc(C(F)(F)F)ccc1N1CCCC1)c1cccnc1 | -5.24%
35 | Cc1[nH]c(C)c2c(=O)n(Cc3ccc(Cl)cc3)ncc12 | 8.19%
36 | NC1=NC(c2cn[nH]c2-c2ccc(F)cc2)n2c(nc3ccccc32)N1 (stereo not shown) | 17.9%
37 | O=c1[nH][nH]c(=S)n1C1CCCCC1 | 10.4%
38 | O=C(O)Cn1c(=O)c2c(c3ccccc31)CCC2 | 11.5%
39 | COc1cccc(-n2nnc(S(=O)(=O)c3ccc(C)cc3)c2N)c1 | 11.4%
40 | COc1ccccc1C(=O)NCCSCc1c(F)cccc1Cl | 10.4%
41 | N#CC1(NC(=O)COC(=O)c2ccccc2[N+](=O)[O-])CCCCC1 | 2.48%
42 | CCCCOC(=O)Nc1ccc(C(=O)OCCC)cc1 | -6.68%
43 | COc1ccc(/C(O)=C2/C(=O)C(=O)N(CCCN3CCOCC3)C2c2ccc(C(C)C)cc2)cc1 (stereo not shown) | 16.7%
44 | O=C(O)C(=O)O.Oc1ccccc1CN1CCC(C(O)(c2ccccc2)c2ccccc2)CC1 | -1.01%

Row | Compound | hERG current change (%, negative = inhibition) at 1uM
45 | CCN(CC)CCCNC(=O)CCC(=O)Nc1ccc2nc(N3CCCCC3)cc(C)c2c1 | -0.134%
46 | O=C(CNc1ccccc1Cl)N/N=C1\CCCc2ccccc21 | 19.4%
47 | O=S(=O)(Cc1ccccc1)Nc1cccc(F)c1 | 13.4%
48 | Cc1nnc(N/N=C/c2ccccc2O)n1N | -1.76%
49 | CCCn1c(SCC(=O)Nc2cccc(S(=O)(=O)N3CCCC3)c2)n[nH]c1=O | 11.4%
50 | CC(C)(C)n1nc2c(c1NC(=O)Cc1ccc(F)cc1)CS(=O)(=O)C2 | 6.24%
51 | S=C(NCCc1ccccc1)N1CCn2cccc2C1c1cccnc1 (stereo not shown) | 3.03%
52 | Cc1ccc(-c2noc(CCC(=O)N3CCN(c4cccc(C(F)(F)F)c4)CC3)n2)cc1 | 11.4%
53 | Cc1nc2ccccc2n1CC(=O)OCC(=O)NCc1ccccc1 | 12.1%
54 | CC(NC(=O)COC(=O)c1cccs1)c1ccccc1 (stereo not shown) | 17%
55 | C/C(O)=C(/N=O)C(=O)Nc1ccccc1 | 13.4%
56 | COCCNC(=O)Cn1nc(C(F)(F)F)c(Br)c1C | 4.13%
57 | COC(=O)CNC(=O)Cn1cnc2sc(C)c(S(=O)(=O)N3CCN(c4ccccc4OC)CC3)c2c1=O | 9.85%
58 | O=C(c1cc2cc(F)ccc2[nH]1)N1CCN(Cc2ccc3c(c2)OCO3)CC1 | -0.23%
59 | COc1ccccc1CNC(=O)C(=O)NCCC1CCCCN1S(=O)(=O)c1ccccc1 (stereo not shown) | 9.75%
60 | O=C(Nc1cccnc1)c1cccc(NC(=O)c2ccco2)c1 | 5.86%
61 | O=S(=O)(c1ccc2ccccc2c1)N1CCOCC1 | 5.94%
62 | Cc1oc(=O)c(NC(=O)c2cccc(Cl)c2)cc1C(=O)c1ccccc1 | 5.39%
63 | O=C(Cn1nnc(-c2ccc3c(c2)OCO3)n1)NCc1ccco1 | 5.44%
64 | CC1CCCCN1CC(=O)c1c(N)n(Cc2ccccc2)c(=O)n(C)c1=O (stereo not shown) | 4.41%
65 | CC(=O)Nc1ccc(NC(=O)C2CCCN(c3ncccn3)C2)cc1 (stereo not shown) | -0.454%
66 | CC(C)(C)NC(=O)C1CCN(S(=O)(=O)c2cccc3nsnc23)CC1 | 13.5%

Row | Compound | hERG current change (%, negative = inhibition) at 1uM
67 | N=c1c2c(-c3ccccc3)c(-c3ccccc3)oc2ncn1Cc1ccco1 | 9.94%
68 | CCN(Cc1ccccc1)C(=O)COc1cc(=O)n(CC)c2ccccc12 | 8.35%
69 | C/C(=N\NC(=O)C(=O)Nc1ccc(C)c(Cl)c1)c1ccncc1 | -8.26%
70 | Cc1cc(C)n(Cc2ccc(Cl)cc2Cl)c(=O)c1S(=O)(=O)c1ccccc1 | 14.2%
71 | Cc1[nH]c(=O)c(C#N)c(C)c1CCC(=O)NCc1ccc(Cl)cc1 | 13.2%
72 | C/C(=C\c1ccc(N(C)C)cc1)[N+](=O)[O-] | 10.6%
73 | Cc1ccccc1CSc1nc2[nH]ncc2c(=O)[nH]1 | 16.3%
74 | CCN(CC)S(=O)(=O)c1ccc(OCC(=O)NC(=O)c2ccccc2OC)c([N+](=O)[O-])c1 | 9.96%
75 | CCOC(=O)c1ccccc1NC(=O)COC(=O)c1ccccc1C(=O)N(C)c1ccccc1 | -2.8%
76 | CC(C)[C@H](NC(=O)C1CCN(C(=O)[C@@H]2CCCN2)CC1)C(=O)NCc1ccc(F)cc1 | 16.8%
77 | CC1(c2ccc3ccccc3c2)NC(=O)N(CC(=O)N2CCN(Cc3ccccc3)CC2)C1=O (stereo not shown) | 8.98%
78 | COc1ccc(-[n+]2c(C)cc(/C=C3\Sc4ccccc4N3C)cc2C)cc1.[I-] | 3.65%
79 | C#CCOCCOCCOCCNc1nc(N2CCN(C(=O)C([C@@H](C)CC)n3cc(C(N)CO)nn3)CC2)nc(N2CCN(C(=O)C([C@@H](C)CC)n3cc(C(N)COC(=O)C(F)(F)F)nn3)CC2)n1.Cl (stereo partly shown) | 19.6%
80 | COc1ccccc1CNC(=O)C(=O)NCC1OCCN1S(=O)(=O)c1ccc2c(c1)OCCO2 (stereo not shown) | 13%
81 | CC(=O)C1=C(C)N(CC2CC2)C(=O)N[C@H]1c1cccs1 | 8.7%
82 | CN(C(=O)CC(NC(=O)c1ccccc1Cl)c1ccccc1)c1ccccc1 (stereo not shown) | -1.53%
83 | FC(F)(F)COc1nc(N2CCCCC2)nc(N2CCNCC2)n1 | 7.46%
84 | Cc1ccc(C)c(Oc2cc(F)nc(N)n2)c1 | 12.3%
85 | O=C(Nc1ccccn1)C1CCN(S(=O)(=O)c2ccccc2)CC1 | 0.537%
86 | COc1ccc(NC(=O)COc2ccccc2)c(OC)c1 | -4.37%
87 | N#C/C=C(/N)N1CCN(c2ccc(Cl)c(Cl)c2)CC1 | -19.2%
88 | CC(C)c1ccc(NC(=O)C(c2ccccc2)N(C)C(=O)CCc2c[nH]c3ccccc23)cc1 (stereo not shown) | 7.01%
